According to the supplement of paper PMC12632987:
Whole data set: some 2,300 sequences, median “median log2 fold change of GCK-ALFA target abundance (FLAG IP / Myc IP barcode read proportion)” near 0.095, cut for the lowest 2% near -0.47. This is one part of the list.

B1: LC3A_28_1231 (protein)
chain: MTPEEIAKRLIEEAKAQLAAGEKVIEIDITAEEGSPENAEALVKALKEIAALANEAKGVSIIVTLDEKIPQESRDKIIKAAEEAEKEYPNVTIIIAIDEE
B2: LC3A_6_2060 (protein)
chain: KTVTVTVDLLLKEEKLEEGKAAVEKAVEEAKKELEKKAKELGKKLLEVKLEESEDGLLLTVTFKAEYHPELKAKMEELADKIVEEMKPYSLASMISIEIE
B3: LC3A_17_573 (protein)
chain: MEEVEELYKKALEVLKKAAEFAAKVDPEKAKEIEKLIKELEKAKKELSPLEIAKKIAEVMDKAADILDSLDAPDPDERDHLSMEAEGVSIEALSLALKLE
B4: LC3A_74_2074 (protein)
chain: KITPEESEIVFEAVATAHLLRLLAERHPERAEELRALADELLEAANKVIEKAGLDKDLIESGGEIEAELRLDTEPLSVEEALALGREKLKEVNAILKKLE
B5: LC3A_59_2016 (protein)
chain: SAELEKAIAEIKANVDDLEALAKTLAEALWKFKDNEEDVDKLIEAAGEALSKKYGISEEDIEELKKEIREAFKKLKDLEELEKEILELLNDYVNLIPIEE
B6: LC3A_28_1036 (protein)
chain: MELEKKAEEAVKEAEELAKKGEEATVTIDVGKLPTEEAAAIVKRALERLIEISKKYGNQKINVVINVDGDQETIDAIIDIAEEAEKKNPNLTVIVAIDEE
B7: LC3A_17_545 (protein)
chain: MEEIKKELEKLLKELKKLVKKLKPYDPEAAKKLEKELKEAEKLLKEGKLKEAAEKLIKAADELADAFEKLEPEKGTEASVLAMEANGIEIEAIGLLLKLE
B8: LC3A_free_39_2216 (protein)
chain: SREEIEETIREIAREGGIDEEYVRAKMEEIQRVGGLSDEQMLEITKAVLEAVRAGADAREILEDILALTKELVAAGKSPEEIAEEILELIEDYRNLVPLD
B9: LC3A_3_1585 (protein)
chain: LEEKEKELIEALKKAGHSEETIKAVKELLELLKEKGYEEAAEKFIELFLENIDLSSELLLDVALEMKELVEAGKLSEEEIIEEAEELFRVAKSEQEIIEL
B10: LC3A_free_8_2500 (protein)
chain: NNQKVVDAALKGLEELEKELREKAKKLGLSELDILELELEVGSAISDVISNSDKSPEEILKTTREDLERIIELAKELSEELAELAKKKSEEILKELEKLL
B11: LC3A_free_8_2534 (protein)
chain: NKQEFVDKALELLDEFEEKLVKKMKEEGKSRLEILEMELLIGETEIEVIENSDKPQEEILKVVEEGLKEIVELAKEYGEEIAKFAEEKAEEVLKELREFL
B12: LC3A_102_156 (protein)
chain: DIEKLLKETKKKIEELAKKLAKTLSKEEAEKLKKLVKEALELLEKYAEELKIGAQHDYETVEGVAAEIELEDLIKKLKEMGAEEIAEALEKGVKELKKLA
B13: LC3A_132_289 (protein)
chain: QEEKAKELLEEARKLVEEAKENIDDEEKVRELLKQIEEVMERAKKELSPELLAEFFEELEDLLEELSEEFDEAGKEELALEADSLAIEAASLSLEAKEKI
B14: LC3A_free_46_2423 (protein)
chain: MVLEIEIDFIAKTKETAEAVSKEIEELIKKLAEEKGVEVEIEVEIEKLEDGTYYVHIKATITGVTEEQAKEIEDTLTSKIEEILKKYPEVLGSIISSELK
B15: LC3A_132_275 (protein)
chain: GKEKAEEIKKKLKELMKKLEENIDNLEKVKELVKEIEKLLEEAEKELTPEEVAEVAEYLAELAEKVEEKYEKAGKEEEALLVLNLSMYADGIAIEAELKL
B16: LC3A_free_46_2374 (protein)
chain: MKITIYAYKEGMTEKEAEELAEEIEKEIKEIAKKLGVEVEIKTEVVKNADGSYLVVVEIIIKAETEEKEQEAEVAIIEKVDEIAKKRNASVIISVEKIEP
B17: LC3A_147_419 (protein)
chain: GTLEFEIDILGKLTDEEIEELVKRLEEVAKKHGAEVEVEVEVEELPGGERFVRIKLTLKGVKEEDAQTVENALIDEVDKFIEKYKDKIKGYIISSEFIKD
B18: LC3A_free_0_2120 (protein)
chain: KKTVVEVVIILDDSTSEEKAKEIHEKLKEEAEKLAKENGGELKSSLSKSDGSYIITLEITFDTEDIDLALEVERKLVEIAEKILKEANVEATIYSSVYLE
B19: LC3A_28_1234 (protein)
chain: MTPEEIAKRLIEKAKEQLAAGEKVIEIEITEEEASPENTEAIVKAIHEIAKMANEAKGVSIVINVSGKADPEVINAIMDAAEEAEKKYPNVTIIIAIADE

What follows are binders tested against MAP1LC3A, Q9H492 (assay: median log2 fold change of GCK-ALFA target abundance (FLAG IP / Myc IP barcode read proportion) (log2 ratio); each designed protein is fused to an ALFA-tag nanobody in HEK293 cells to bring the named protein to FLAG-tagged glucokinase (GCK); Myc marks an untargeted standard; higher = target protein stabilised (more abundant)). Conditions: target protein: 3xFLAG-MCP-GCK-ALFA reporter; HEK293 landing pad (RPLP).
Method in brief: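 Sequencing of reverse-transcribed, amplified circular RNA barcodes from anti-FLAG and anti-Myc immunoprecipitates provided the readout for an ALFA-nanobody-fused binder library recombined into HEK293 landing-pad cells. Those cells were induced with 2 μg mL^−1 doxycycline, transfected with a plasmid expressing a FLAG-tagged target and a Myc-tagged standard, and lysed after 48 h. Target abundance is the per-binder median log2 ratio of FLAG to Myc barcode read proportions. Only barcodes at a proportion of ≥10^−7 in both replicates and binders with ≥3 barcodes per replicate were kept, with a 10^−6 pseudocount added before the two replicates were pooled.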

Row | Binder | median log2 fold change
1 | B1 | 0.249
2 | B2 | -0.119
3 | B3 | -0.04
4 | B4 | 0.266
5 | B5 | 0.28
6 | B6 | 0.326
7 | B7 | 0.151
8 | B8 | 0.0117
9 | B9 | 0.138
10 | B10 | -0.157
11 | B11 | -0.00611
12 | B12 | 0.18
13 | B13 | -0.307
14 | B14 | -0.0218
15 | B15 | -0.404
16 | B16 | -0.0534
17 | B17 | -0.158
18 | B18 | -0.12
19 | B19 | -0.0382
